The values that follow come from PMC5341729 (Molecular Biology of the Cell, 2017).

One experiment has as its target T1, MYO10-TPRN(KASA)^BAIT (mouse, UniProt A2AI08 1-749, KISF to KASA (KISF motif, residues 624-627)).
T1 sequence: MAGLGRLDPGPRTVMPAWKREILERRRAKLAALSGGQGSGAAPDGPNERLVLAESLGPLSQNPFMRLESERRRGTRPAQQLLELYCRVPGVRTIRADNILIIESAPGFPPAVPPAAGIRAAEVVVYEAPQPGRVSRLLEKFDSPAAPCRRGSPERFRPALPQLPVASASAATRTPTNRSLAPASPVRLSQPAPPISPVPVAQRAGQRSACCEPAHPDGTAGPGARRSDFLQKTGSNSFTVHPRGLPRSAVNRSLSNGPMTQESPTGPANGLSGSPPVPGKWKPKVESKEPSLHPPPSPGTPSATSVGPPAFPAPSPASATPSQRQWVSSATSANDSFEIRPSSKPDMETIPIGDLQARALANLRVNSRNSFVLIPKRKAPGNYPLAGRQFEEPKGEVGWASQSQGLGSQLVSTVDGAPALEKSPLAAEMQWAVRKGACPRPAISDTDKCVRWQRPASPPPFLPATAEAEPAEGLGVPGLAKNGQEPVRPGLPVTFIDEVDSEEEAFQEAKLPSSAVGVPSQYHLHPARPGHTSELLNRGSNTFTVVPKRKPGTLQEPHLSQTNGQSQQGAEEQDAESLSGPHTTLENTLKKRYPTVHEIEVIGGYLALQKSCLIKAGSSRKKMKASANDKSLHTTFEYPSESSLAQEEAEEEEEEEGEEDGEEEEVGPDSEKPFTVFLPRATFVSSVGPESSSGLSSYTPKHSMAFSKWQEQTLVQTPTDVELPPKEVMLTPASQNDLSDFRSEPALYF
The experiment can be described thus: NanoSPD.

Experiment [1] has as its target T2, MYO10-TPRN^BAIT (taperin fused to MYO10^HMM) (mouse, UniProt A2AI08 1-749).
T2 sequence: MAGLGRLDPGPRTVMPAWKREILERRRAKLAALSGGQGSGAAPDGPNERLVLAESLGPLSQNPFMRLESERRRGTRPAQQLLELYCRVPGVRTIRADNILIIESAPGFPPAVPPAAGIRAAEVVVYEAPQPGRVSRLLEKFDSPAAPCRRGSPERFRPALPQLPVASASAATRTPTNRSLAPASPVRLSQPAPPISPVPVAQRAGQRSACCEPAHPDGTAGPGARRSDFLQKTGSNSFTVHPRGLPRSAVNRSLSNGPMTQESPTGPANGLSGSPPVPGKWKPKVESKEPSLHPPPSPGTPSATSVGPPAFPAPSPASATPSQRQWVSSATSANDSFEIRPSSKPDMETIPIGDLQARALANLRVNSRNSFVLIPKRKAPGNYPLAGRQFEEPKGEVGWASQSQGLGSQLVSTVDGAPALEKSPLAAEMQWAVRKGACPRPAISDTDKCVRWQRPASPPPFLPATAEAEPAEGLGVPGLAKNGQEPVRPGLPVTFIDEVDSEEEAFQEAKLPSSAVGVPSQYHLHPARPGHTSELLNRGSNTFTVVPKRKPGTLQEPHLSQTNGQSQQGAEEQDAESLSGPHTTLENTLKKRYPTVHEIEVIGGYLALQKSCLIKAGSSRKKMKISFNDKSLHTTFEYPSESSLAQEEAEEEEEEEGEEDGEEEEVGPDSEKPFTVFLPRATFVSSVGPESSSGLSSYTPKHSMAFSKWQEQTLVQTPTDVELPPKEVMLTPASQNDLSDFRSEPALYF
In words: NanoSPD.

B1: PPP1CA^PREY (natural protein)
chain: not shown
Regarding B1, the “fold increase of prey fluorescence at filopodial tips against MYO10^(NO BAIT)” value in the experiment with MYO10-TPRN(KASA)^BAIT was 1.6 fold; in experiment [1], 5.2 fold.
